Sequences with one replicate were seen in a single cluster, so their values are uncertain.
test system: ATP; assay: switch fluorescence ratio, 500 uM ATP over buffer (Cy3 cluster intensity, sum of 5 cycles each) (fold (ratio)); higher = stronger signal-on switching upon ATP binding; sequences stand for … in TCGTCGGCAGCGTCAGATGTGTATAAGAGACAGTTTTTTTTTTTTTTTTTTTTTTTTT…TC; conditions: aptamer strand: ATP DNA aptamer (quencher-CACCTGGGGGAGTATTGCGGAGGAAGG + anchor), 100 nM annealed; ATP concentration: 500 uM; one replicate
Procedure, shortened: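 The quencher-labelled ATP aptamer, at 100 nM, was annealed to Cy3-labelled switching-strand clusters on a modified Illumina MiSeq flow-cell. The clusters were imaged in selection buffer, then after 15 min with 500 uM ATP at 22 °C, and this buffer/ATP cycle ran five times with NaOH stripping and re-annealing between runs. Per-cluster fluorescence ratios, summed target-cycle over summed buffer-cycle Cy3 intensity, were averaged per switch-domain sequence. Clusters outside 100-1000 RFU were excluded.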
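Also: ATP exposure 15 min at 22 °C before imaging.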

Sequence | switch fluorescence ratio
ATGGCGAACT | 0.976
ATGGCGGTGA | 0.964
ATGGCTCCGT | 0.99
ATGGCTCGGC | 0.953
ATGGGAAGAG | 1.03
ATGGGACCAG | 1.02
ATGGGCCTCA | 0.978
ATGGGCGTGC | 1.03
ATGGGCTACT | 0.961
ATGGGCTTCA | 1.04
ATGGGGACAC | 1.03
ATGGGGCGCA | 0.981
ATGGGGTCG | 0.995
ATGGGTCCTT | 1.04
ATGGTAGTGT | 1.02
ATGGTATTGG | 1.03
ATGGTCAGAA | 0.981
ATGGTCGACA | 0.944
ATGGTCGACG | 1.02
ATGGTCGTCC | 0.999
ATGGTCTTAG | 1.04
ATGGTGCAAT | 1.34
ATGGTGCTCG | 1.1
ATGGTTATTT | 1.05
ATGGTTCAGG | 0.958
ATGGTTGCTT | 1.02

Sequence | switch fluorescence ratio
ATGGTTGGCG | 0.955
ATGTAAAGTA | 0.981
ATGTAAAGTT | 1.04
ATGTACCTGG | 0.983
ATGTAGCCGC | 1
ATGTAGGTGT | 1.1
ATGTATACAG | 0.994
ATGTATCGAC | 1.04
ATGTATGCAA | 1.05
ATGTCAAGAC | 1.68
ATGTCAATCG | 0.981
ATGTCATTTG | 1
ATGTCCTAAA | 0.971
ATGTCGACCT | 1
ATGTCGCGTG | 0.987
ATGTCGTCTA | 0.999
ATGTCTTCTA | 0.968
ATGTGAACCG | 1.07
ATGTGACCTA | 1.01
ATGTGAGGAC | 1.08
ATGTGCCCGC | 1.03
ATGTGCTTGC | 1.07
ATGTGGACGA | 0.97
ATGTGGTGGA | 1.03
ATGTGGTTA | 0.972
ATGTGTCAA | 0.999

Sequence | switch fluorescence ratio
ATGTGTCGCA | 1
ATGTTAAGAA | 0.997
ATGTTACGGA | 1.06
ATGTTCAGTC | 1.01
ATGTTGGT | 1
ATGTTGTGTA | 0.964
ATTAAACATT | 1.03
ATTAAACCTC | 1.18
ATTAAGTTGT | 0.972
ATTAATCATA | 0.986
ATTAATTGTA | 1.01
ATTAATTTAC | 1.06
ATTACACCGT | 1.04
ATTACCACTA | 1.06
ATTACCCCAG | 1.9
ATTACCGCTG | 1.06
ATTACCGGGA | 1.05
ATTACGAC | 1.16
ATTACGACCT | 1.46
ATTACGTAAT | 1.03
ATTACGTGC | 1.01
ATTACTTCGG | 0.964
ATTAGAAATA | 0.997
ATTAGCAGAT | 0.977
ATTAGCCGTT | 1.05
ATTAGCGGTT | 0.996

Sequence | switch fluorescence ratio
ATTAGGGCTG | 1.04
ATTAGTATCA | 0.982
ATTAGTCACT | 1.02
ATTATAGGGA | 0.984
ATTATATGGC | 0.961
ATTATATTGA | 0.987
ATTATCACA | 0.992
ATTATCCTGA | 1.02
ATTATCGGCA | 1.06
ATTATCTATT | 1.01
ATTATGGAAT | 1.05
ATTATGGTTG | 1
ATTATGTTGC | 1.03
ATTATTATTA | 1.04
ATTCAACTTA | 1
ATTCACTAT | 1.03
ATTCAGTGAC | 1.05
ATTCAGTTCG | 1.02
ATTCCAGAGA | 0.968
ATTCCGTAAT | 5.05
ATTCCGTTGT | 1.06
ATTCCTCGTA | 1.11
ATTCCTGCGT | 1.46
ATTCCTGTAG | 1.06
ATTCCTGTTT | 1.03
ATTCGGCCAC | 0.987

Sequence | switch fluorescence ratio
ATTCGGGGC | 0.986
ATTCGTTTAC | 1.07
ATTCTAGTTC | 1.07
ATTCTCAGT | 0.992
ATTCTCCAGC | 1.1
ATTCTCCTTA | 1.02
ATTCTTAAGT | 0.986
ATTCTTACTT | 0.962
ATTCTTGTTT | 1.02
ATTGACAGGT | 1.01
ATTGACCATG | 1.05
ATTGACTTCT | 1.02
ATTGAGTGTA | 1.02
ATTGATAGTT | 0.936
ATTGATCAA | 0.989
ATTGATGC | 0.992
ATTGATTACA | 1.04
ATTGCCCCGA | 1.01
ATTGCCTGGT | 0.975
ATTGCGAACG | 1.15
ATTGCGGTCG | 1.04
ATTGCTCGCT | 0.958
ATTGCTTTT | 1.06
ATTGGAAGGT | 0.996
ATTGGAGAAA | 0.99
ATTGGAGATA | 0.943

Sequence | switch fluorescence ratio
ATTGGCAAGC | 1.16
ATTGGCAGTA | 1.03
ATTGGCATTC | 1.07
ATTGGCTCTT | 0.951
ATTGGGCCGA | 1.01
ATTGGGCCTT | 1.03
ATTGGGGGG | 1.03
ATTGGGTCAG | 1.04
ATTGGTATCG | 0.99
ATTGGTCT | 0.983
ATTGGTCTGG | 0.962
ATTGTACTTG | 1.53
ATTGTCTCAA | 1.01
ATTGTCTTAG | 0.994
ATTGTTCA | 1
ATTTACAGCA | 1.04
ATTTACATAG | 1
ATTTACGAAA | 1.08
ATTTACGTTG | 0.992
ATTTAGAAGC | 1.01
ATTTAGAGTT | 1.01
ATTTAGTCCT | 1.05
ATTTATCATT | 0.993
ATTTATGAT | 0.96
ATTTCAATAA | 1
ATTTCAATTG | 0.995

Sequence | switch fluorescence ratio
ATTTCCCCTT | 1.06
ATTTCCTGGG | 1.01
ATTTCGGGTG | 1.05
ATTTCGTAT | 1.03
ATTTCTAAAT | 1.02
ATTTGAACTG | 1.26
ATTTGACATC | 1.02
ATTTGAGCAT | 1.01
ATTTGCAAGA | 1.05
ATTTGCCCGC | 1.13
ATTTGCGTTA | 1.02
ATTTGCTC | 0.979
ATTTGCTCAC | 1.06
ATTTGGCAAT | 1.02
ATTTGGCTTT | 0.987
ATTTGTGCAT | 1.01
ATTTTAAAGC | 1.04
ATTTTAAG | 1
ATTTTACACG | 1.02
ATTTTAGAGA | 0.991
ATTTTAGTGA | 1.04
ATTTTATAC | 1.15
ATTTTATTTC | 1
ATTTTGGAA | 1.01
ATTTTGGAAT | 1.05
ATTTTGTCAG | 1.01

Sequence | switch fluorescence ratio
ATTTTTGTA | 0.971
ATTTTTGTAC | 0.97
CAAAAAAGTT | 1
CAAAAAGTTC | 1.02
CAAAAATTTC | 1.01
CAAAACTGCG | 1.07
CAAAAGACAT | 1
CAAAAGCAAG | 1.19
CAAAAGGAAC | 0.948
CAAAAGGATG | 0.965
CAAAATAGAT | 1.01
CAAAATCAGC | 0.903
CAAACAGCTT | 1.01
CAAACCCAGA | 0.987
CAAACCCAGG | 3.27
CAAACTACGA | 1.06
CAAACTGGGA | 0.998
CAAACTGGTT | 0.996
CAAACTTAAC | 1.07
